Our source for the cell count values is the supplement of paper PMC4604168 (melanoma cell lines).

Some of the results follow. Single values are uncertain, as repeats are few or missing.
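Note: cells treated in 1,536-well plates, then fixed and DAPI-stained, with nuclei counted from automated high-throughput microscope images.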

For one experiment, the system named is MEL-HO. The experiment in a line: cell count relative to DMSO control; melanoma cells; higher = more viable cells. To be noted: library dose: standard library concentration; 72 h.
`CC[C@]1(O)C[C@H]2CN(CCc3c([nH]c4ccccc34)[C@@](C(=O)OC)(c3cc4c(cc3OC)N(C=O)[C@H]3[C@@](O)(C(=O)OC)[C@H](OC(C)=O)[C@]5(CC)C=CCN6CC[C@]43[C@@H]65)C2)C1` [vincristine] + CCc1ccc(CCOc2ccc(CC3SC(=O)NC3=O)cc2)nc1 [pioglitazone] (first compound 0.0005 µM, partner dose 10 µM) showed a cell count of 45.8%.

As to `Cc1cc(Nc2cc(N3CCN(C)CC3)nc(Sc3ccc(NC(=O)C4CC4)cc3)n2)n[nH]1` [Tozasertib] + COc1cc(Nc2ncc(F)c(Nc3ccc4c(n3)NC(=O)C(C)(C)O4)n2)cc(OC)c1OC [Tamatinib] (first compound 0.03 µM, partner dose 2 µM), the cell count stood at 77.6%.

`Cc1cc(Nc2cc(N3CCN(C)CC3)nc(Sc3ccc(NC(=O)C4CC4)cc3)n2)n[nH]1` [Tozasertib] + C[C@@H](Oc1cc(-c2cnn(C3CCNCC3)c2)cnc1N)c1c(Cl)ccc(F)c1Cl [Crizotinib] (first compound 0.03 µM, partner dose 1 µM): the cell count came out at 81.2%.

`CC[C@]1(O)C[C@H]2CN(CCc3c([nH]c4ccccc34)[C@@](C(=O)OC)(c3cc4c(cc3OC)N(C=O)[C@H]3[C@@](O)(C(=O)OC)[C@H](OC(C)=O)[C@]5(CC)C=CCN6CC[C@]43[C@@H]65)C2)C1` [vincristine] + CN(NC(=O)CC(=O)NN(C)C(=S)c1ccccc1)C(=S)c1ccccc1 [STA4783] (first compound 0.0005 µM, partner dose 0.03 µM): the cell count stood at 85.8%.

For `CC[C@]1(O)C[C@H]2CN(CCc3c([nH]c4ccccc34)[C@@](C(=O)OC)(c3cc4c(cc3OC)N(C=O)[C@H]3[C@@](O)(C(=O)OC)[C@H](OC(C)=O)[C@]5(CC)C=CCN6CC[C@]43[C@@H]65)C2)C1` [vincristine] + NC1(c2ccc(-c3nc4ccn5c(=O)[nH]nc5c4cc3-c3ccccc3)cc2)CCC1 [MK2206] (first compound 0.0005 µM, partner dose 2 µM), the cell count was found to be 68.1%.

As for `CC[C@]1(O)C[C@H]2CN(CCc3c([nH]c4ccccc34)[C@@](C(=O)OC)(c3cc4c(cc3OC)N(C=O)[C@H]3[C@@](O)(C(=O)OC)[C@H](OC(C)=O)[C@]5(CC)C=CCN6CC[C@]43[C@@H]65)C2)C1` [vincristine] + O=C(O)c1ccc(-c2c[nH]c3ncc(-c4ccccc4)cc23)cc1C1CCCC1 [GSK650394] (first compound 0.0005 µM, partner dose 0.8 µM), the cell count was found to be 66.2%.

`CC[C@]1(O)C[C@H]2CN(CCc3c([nH]c4ccccc34)[C@@](C(=O)OC)(c3cc4c(cc3OC)N(C=O)[C@H]3[C@@](O)(C(=O)OC)[C@H](OC(C)=O)[C@]5(CC)C=CCN6CC[C@]43[C@@H]65)C2)C1` [vincristine] + COc1ccc(C2=N[C@@H](c3ccc(Cl)cc3)[C@@H](c3ccc(Cl)cc3)N2C(=O)N2CCNC(=O)C2)c(OC(C)C)c1 [Nutlin-3] (first compound 0.0005 µM, partner dose 0.5 µM) registered a cell count of 81.6%.

Turning to `N#CC[C@H](C1CCCC1)n1cc(-c2ncnc3[nH]ccc23)cn1` [ruxolitinib] + CC(=O)c1c(C)c2cnc(Nc3ccc(N4CCNCC4)cn3)nc2n(C2CCCC2)c1=O [palbociclib] (first compound 5 µM, partner dose 0.2 µM), the cell count was 64.5%.

A further experiment has as its system MZ2-MEL. The description is as above. To be noted: library dose: standard library concentration; 72 h.
In turn, `Cc1cc(Nc2cc(N3CCN(C)CC3)nc(Sc3ccc(NC(=O)C4CC4)cc3)n2)n[nH]1` [Tozasertib] + CC(=O)O[C@@]12CO[C@@H]1C[C@H](O)[C@@]1(C)C(=O)[C@H](O)C3=C(C)[C@@H](OC(=O)[C@H](O)[C@@H](NC(=O)OC(C)(C)C)c4ccccc4)C[C@@](O)([C@@H](OC(=O)c4ccccc4)[C@H]21)C3(C)C [Docetaxel] (first compound 0.03 µM, partner dose 0.0005 µM) showed a cell count of 44.8%.

Consider `CC[C@]1(O)C[C@H]2CN(CCc3c([nH]c4ccccc34)[C@@](C(=O)OC)(c3cc4c(cc3OC)N(C=O)[C@H]3[C@@](O)(C(=O)OC)[C@H](OC(C)=O)[C@]5(CC)C=CCN6CC[C@]43[C@@H]65)C2)C1` [vincristine] + Oc1nc(-c2ccc(C(F)(F)F)cc2)nc2c1CSCC2 [XAV939] (first compound 0.0005 µM, partner dose 10 µM), for which the cell count stood at 84.2%.

`CC[C@]1(O)C[C@H]2CN(CCc3c([nH]c4ccccc34)[C@@](C(=O)OC)(c3cc4c(cc3OC)N(C=O)[C@H]3[C@@](O)(C(=O)OC)[C@H](OC(C)=O)[C@]5(CC)C=CCN6CC[C@]43[C@@H]65)C2)C1` [vincristine] + c1cc(-c2cnn3cc(-c4ccc(OCCN5CCCCC5)cc4)cnc23)ccn1 [Dorsomorphin] (first compound 0.0005 µM, partner dose 2 µM): the cell count came out at 26.7%.

As for `Cc1cc(Nc2cc(N3CCN(C)CC3)nc(Sc3ccc(NC(=O)C4CC4)cc3)n2)n[nH]1` [Tozasertib] + COc1ccc(-c2ccc3c(N4CCOCC4)nc(N4C[C@@H](C)O[C@@H](C)C4)nc3n2)cc1CO [KU0063794] (first compound 0.03 µM, partner dose 0.1 µM), the cell count is 73.9%.

Take `CC[C@]1(O)C[C@H]2CN(CCc3c([nH]c4ccccc34)[C@@](C(=O)OC)(c3cc4c(cc3OC)N(C=O)[C@H]3[C@@](O)(C(=O)OC)[C@H](OC(C)=O)[C@]5(CC)C=CCN6CC[C@]43[C@@H]65)C2)C1` [vincristine] + O=C(Nc1cc(C(F)(F)F)cc(C(F)(F)F)c1)c1cc(Cl)ccc1O [IMD0354] (first compound 0.0005 µM, partner dose 0.08 µM): the cell count came to 83.1%.

With `N#CC[C@H](C1CCCC1)n1cc(-c2ncnc3[nH]ccc23)cn1` [ruxolitinib] + Nc1cccc2c1CN(C1CCC(=O)NC1=O)C2=O [lenalidomide] (first compound 5 µM, partner dose 5 µM), the cell count worked out at 91.2%.

Take `CC[C@]1(O)C[C@H]2CN(CCc3c([nH]c4ccccc34)[C@@](C(=O)OC)(c3cc4c(cc3OC)N(C=O)[C@H]3[C@@](O)(C(=O)OC)[C@H](OC(C)=O)[C@]5(CC)C=CCN6CC[C@]43[C@@H]65)C2)C1` [vincristine] + COCC[n+]1c2c(n(Cc3cnccn3)c1C)C(=O)c1ccccc1C2=O [YM155] (first compound 0.0005 µM, partner dose 0.002 µM): the cell count turned out to be 28.5%.

`Cc1cc(Nc2cc(N3CCN(C)CC3)nc(Sc3ccc(NC(=O)C4CC4)cc3)n2)n[nH]1` [Tozasertib] + O=C(CCCCCCC(=O)Nc1ccccc1)NO [vorinostat] (first compound 0.03 µM, partner dose 0.4 µM) returned a cell count of 67.6%.

`N#CC[C@H](C1CCCC1)n1cc(-c2ncnc3[nH]ccc23)cn1` [ruxolitinib] + CN(c1ncccc1CNc1nc(Nc2ccc3c(c2)CC(=O)N3)ncc1C(F)(F)F)S(C)(=O)=O [PF562271] (first compound 5 µM, partner dose 0.4 µM) returned a cell count of 67.5%.

As for `N#CC[C@H](C1CCCC1)n1cc(-c2ncnc3[nH]ccc23)cn1` [ruxolitinib] + CC(=O)O[C@@]12CO[C@@H]1C[C@H](O)[C@@]1(C)C(=O)[C@H](O)C3=C(C)[C@@H](OC(=O)[C@H](O)[C@@H](NC(=O)OC(C)(C)C)c4ccccc4)C[C@@](O)([C@@H](OC(=O)c4ccccc4)[C@H]21)C3(C)C [Docetaxel] (first compound 5 µM, partner dose 0.0005 µM), the cell count came to 34.2%.

For the compound `N#CC[C@H](C1CCCC1)n1cc(-c2ncnc3[nH]ccc23)cn1` [ruxolitinib] + C=C(c1ccc(C(=O)O)cc1)c1cc2c(cc1C)C(C)(C)CCC2(C)C [Bexarotene] (first compound 5 µM, partner dose 10 µM), the cell count amounted to 59.4%.

`CC[C@]1(O)C[C@H]2CN(CCc3c([nH]c4ccccc34)[C@@](C(=O)OC)(c3cc4c(cc3OC)N(C=O)[C@H]3[C@@](O)(C(=O)OC)[C@H](OC(C)=O)[C@]5(CC)C=CCN6CC[C@]43[C@@H]65)C2)C1` [vincristine] + O=S(=O)(c1ccccc1)N(CC(F)(F)F)c1ccc(C(O)(C(F)(F)F)C(F)(F)F)cc1 [T0901317] (first compound 0.0005 µM, partner dose 7 µM) came in with a cell count of 64.4%.

Compound `Cc1cc(Nc2cc(N3CCN(C)CC3)nc(Sc3ccc(NC(=O)C4CC4)cc3)n2)n[nH]1` [Tozasertib] + COc1ccc(C2=N[C@@H](c3ccc(Cl)cc3)[C@@H](c3ccc(Cl)cc3)N2C(=O)N2CCNC(=O)C2)c(OC(C)C)c1 [Nutlin-3] (first compound 0.03 µM, partner dose 0.5 µM) had a cell count of 65.1%.

As for `CC[C@]1(O)C[C@H]2CN(CCc3c([nH]c4ccccc34)[C@@](C(=O)OC)(c3cc4c(cc3OC)N(C=O)[C@H]3[C@@](O)(C(=O)OC)[C@H](OC(C)=O)[C@]5(CC)C=CCN6CC[C@]43[C@@H]65)C2)C1` [vincristine] + CS(=O)(=O)c1ccc(C(=O)Nc2ccc(Cl)c(-c3ccccn3)c2)c(Cl)c1 [vismodegib] (first compound 0.0005 µM, partner dose 5 µM), the cell count came out at 74.2%.

Turning to `CC[C@]1(O)C[C@H]2CN(CCc3c([nH]c4ccccc34)[C@@](C(=O)OC)(c3cc4c(cc3OC)N(C=O)[C@H]3[C@@](O)(C(=O)OC)[C@H](OC(C)=O)[C@]5(CC)C=CCN6CC[C@]43[C@@H]65)C2)C1` [vincristine] + C#Cc1cccc(Nc2ncnc3cc(OCCOC)c(OCCOC)cc23)c1 [erlotinib] (first compound 0.0005 µM, partner dose 4 µM), the cell count was 35.5%.
